# Data from the supplement of paper PMC12423691.
# Some of the results follow. Binding of human transcription factors and regulators to the viral nucleoprotein by AlphaScreen, crude cell-free proteins, amounts not normalised, one pass. Fold of the Venus control; higher = more signal. No active / inactive call. Single-pass screen; sequences are the whole Swiss-Prot entries looked up by name.
# B1: TCF7L1, Q9HCS4 (protein)
# chain: MPQLGGGGGGGGGGSGGGGGSSAGAAGGGDDLGANDELIPFQDEGGEEQEPSSDSASAQRDLDEVKSSLVNESENQSSSSDSEAERRPQPVRDTFQKPRDYFAEVRRPQDSAFFKGPPYPGYPFLMIPDLSSPYLSNGPLSPGGARTYLQMKWPLLDVPSSATVKDTRSPSPAHLSNKVPVVQHPHHMHPLTPLITYSNDHFSPGSPPTHLSPEIDPKTGIPRPPHPSELSPYYPLSPGAVGQIPHPLGWLVPQQGQPMYSLPPGGFRHPYPALAMNASMSSLVSSRFSPHMVAPAHPGLPTSGIPHPAIVSPIVKQEPAPPSLSPAVSVKSPVTVKKEEEKKPHVKKPLNAFMLYMKEMRAKVVAECTLKESAAINQILGRKWHNLSREEQAKYYELARKERQLHSQLYPTWSARDNYGKKKKRKREKQLSQTQSQQQVQEAEGALASKSKKPCVQYLPPEKPCDSPASSHGSMLDSPATPSAALASPAAPAATHSEQAQPLSLTTKPETRAQLALHSAAFLSAKAAASSSGQMGSQPPLLSRPLPLGSMPTALLASPPSFPATLHAHQALPVLQAQPLSLVTKSAH
# B2: FER, P16591 (protein)
# chain: MGFGSDLKNSHEAVLKLQDWELRLLETVKKFMALRIKSDKEYASTLQNLCNQVDKESTVQMNYVSNVSKSWLLMIQQTEQLSRIMKTHAEDLNSGPLHRLTMMIKDKQQVKKSYIGVHQQIEAEMIKVTKTELEKLKCSYRQLIKEMNSAKEKYKEALAKGKETEKAKERYDKATMKLHMLHNQYVLALKGAQLHQNQYYDITLPLLLDSLQKMQEEMIKALKGIFDEYSQITSLVTEEIVNVHKEIQMSVEQIDPSTEYNNFIDVHRTTAAKEQEIEFDTSLLEENENLQANEIMWNNLTAESLQVMLKTLAEELMQTQQMLLNKEEAVLELEKRIEESSETCEKKSDIVLLLSQKQALEELKQSVQQLRCTEAKFSAQKELLEQKVQENDGKEPPPVVNYEEDARSVTSMERKERLSKFESIRHSIAGIIRSPKSALGSSALSDMISISEKPLAEQDWYHGAIPRIEAQELLKKQGDFLVRESHGKPGEYVLSVYSDGQRRHFIIQYVDNMYRFEGTGFSNIPQLIDHHYTTKQVITKKSGVVLLNPIPKDKKWILSHEDVILGELLGKGNFGEVYKGTLKDKTSVAVKTCKEDLPQELKIKFLQEAKILKQYDHPNIVKLIGVCTQRQPVYIIMELVSGGDFLTFLRRKKDELKLKQLVKFSLDAAAGMLYLESKNCIHRDLAARNCLVGENNVLKISDFGMSRQEDGGVYSSSGLKQIPIKWTAPEALNYGRYSSESDVWSFGILLWETFSLGVCPYPGMTNQQAREQVERGYRMSAPQHCPEDISKIMMKCWDYKPENRPKFSELQKELTIIKRKLT
# B3: ZBTB17, Q13105 (protein)
# chain: MDFPQHSQHVLEQLNQQRQLGLLCDCTFVVDGVHFKAHKAVLAACSEYFKMLFVDQKDVVHLDISNAAGLGQVLEFMYTAKLSLSPENVDDVLAVATFLQMQDIITACHALKSLAEPATSPGGNAEALATEGGDKRAKEEKVATSTLSRLEQAGRSTPIGPSRDLKEERGGQAQSAASGAEQTEKADAPREPPPVELKPDPTSGMAAAEAEAALSESSEQEMEVEPARKGEEEQKEQEEQEEEGAGPAEVKEEGSQLENGEAPEENENEESAGTDSGQELGSEARGLRSGTYGDRTESKAYGSVIHKCEDCGKEFTHTGNFKRHIRIHTGEKPFSCRECSKAFSDPAACKAHEKTHSPLKPYGCEECGKSYRLISLLNLHKKRHSGEARYRCEDCGKLFTTSGNLKRHQLVHSGEKPYQCDYCGRSFSDPTSKMRHLETHDTDKEHKCPHCDKKFNQVGNLKAHLKIHIADGPLKCRECGKQFTTSGNLKRHLRIHSGEKPYVCIHCQRQFADPGALQRHVRIHTGEKPCQCVMCGKAFTQASSLIAHVRQHTGEKPYVCERCGKRFVQSSQLANHIRHHDNIRPHKCSVCSKAFVNVGDLSKHIIIHTGEKPYLCDKCGRGFNRVDNLRSHVKTVHQGKAGIKILEPEEGSEVSVVTVDDMVTLATEALAATAVTQLTVVPVGAAVTADETEVLKAEISKAVKQVQEEDPNTHILYACDSCGDKFLDANSLAQHVRIHTAQALVMFQTDADFYQQYGPGGTWPAGQVLQAGELVFRPRDGAEGQPALAETSPTAPECPPPAE
# B4: SMAD4, Q13485 (protein)
# chain: MDNMSITNTPTSNDACLSIVHSLMCHRQGGESETFAKRAIESLVKKLKEKKDELDSLITAITTNGAHPSKCVTIQRTLDGRLQVAGRKGFPHVIYARLWRWPDLHKNELKHVKYCQYAFDLKCDSVCVNPYHYERVVSPGIDLSGLTLQSNAPSSMMVKDEYVHDFEGQPSLSTEGHSIQTIQHPPSNRASTETYSTPALLAPSESNATSTANFPNIPVASTSQPASILGGSHSEGLLQIASGPQPGQQQNGFTGQPATYHHNSTTTWTGSRTAPYTPNLPHHQNGHLQHHPPMPPHPGHYWPVHNELAFQPPISNHPAPEYWCSIAYFEMDVQVGETFKVPSSCPIVTVDGYVDPSGGDRFCLGQLSNVHRTEAIERARLHIGKGVQLECKGEGDVWVRCLSDHAVFVQSYYLDREAGRAPGDAVHKIYPSAYIKVFDLRQCHRQMQQQAATAQAAAAAQAAAVAGNIPGPGSVGGIAPAISLSAAAGIGVDDLRRLCILRMSFVKGWGPDYPRQSIKETPCWIEIHLHRALQLLDEVLHTMPIADPQPLD
# B5: SMAD1, Q15797 (protein)
# chain: MNVTSLFSFTSPAVKRLLGWKQGDEEEKWAEKAVDALVKKLKKKKGAMEELEKALSCPGQPSNCVTIPRSLDGRLQVSHRKGLPHVIYCRVWRWPDLQSHHELKPLECCEFPFGSKQKEVCINPYHYKRVESPVLPPVLVPRHSEYNPQHSLLAQFRNLGQNEPHMPLNATFPDSFQQPNSHPFPHSPNSSYPNSPGSSSSTYPHSPTSSDPGSPFQMPADTPPPAYLPPEDPMTQDGSQPMDTNMMAPPLPSEINRGDVQAVAYEEPKHWCSIVYYELNNRVGEAFHASSTSVLVDGFTDPSNNKNRFCLGLLSNVNRNSTIENTRRHIGKGVHLYYVGGEVYAECLSDSSIFVQSRNCNYHHGFHPTTVCKIPSGCSLKIFNNQEFAQLLAQSVNHGFETVYELTKMCTIRMSFVKGWGAEYHRQDVTSTPCWIEIHLHGPLQWLDKVLTQMGSPHNPISSVS
# B6: MTA2, O94776 (protein)
# chain: MAANMYRVGDYVYFENSSSNPYLVRRIEELNKTANGNVEAKVVCLFRRRDISSSLNSLADSNAREFEEESKQPGVSEQQRHQLKHRELFLSRQFESLPATHIRGKCSVTLLNETDILSQYLEKEDCFFYSLVFDPVQKTLLADQGEIRVGCKYQAEIPDRLVEGESDNRNQQKMEMKVWDPDNPLTDRQIDQFLVVARAVGTFARALDCSSSIRQPSLHMSAAAASRDITLFHAMDTLQRNGYDLAKAMSTLVPQGGPVLCRDEMEEWSASEAMLFEEALEKYGKDFNDIRQDFLPWKSLASIVQFYYMWKTTDRYIQQKRLKAAEADSKLKQVYIPTYTKPNPNQIISVGSKPGMNGAGFQKGLTCESCHTTQSAQWYAWGPPNMQCRLCASCWIYWKKYGGLKTPTQLEGATRGTTEPHSRGHLSRPEAQSLSPYTTSANRAKLLAKNRQTFLLQTTKLTRLARRMCRDLLQPRRAARRPYAPINANAIKAECSIRLPKAAKTPLKIHPLVRLPLATIVKDLVAQAPLKPKTPRGTKTPINRNQLSQNRGLGGIMVKRAYETMAGAGVPFSANGRPLASGIRSSSQPAAKRQKLNPADAPNPVVFVATKDTRALRKALTHLEMRRAARRPNLPLKVKPTLIAVRPPVPLPAPSHPASTNEPIVLED
# B7: SPZ1, Q9BXG8 (protein)
# chain: MASSAKSAEMPTISKTVNPTPDPHQEYLDPRITIALFEIGSHSPSSWGSLPFLKNSSHQVTEQQTAQKFNNLLKEIKDILKNMAGFEEKITEAKELFEETNITEDVSAHKENIRGLDKINEMLSTNLPVSLAPEKEDNEKKQEMILETNITEDVSAHKENIRGLDKINEMLSTNLPVSLAPEKEDNEKKQQMIMENQNSENTAQVFARDLVNRLEEKKVLNETQQSQEKAKNRLNVQEETMKIRNNMEQLLQEAEHWSKQHTELSKLIKSYQKSQKDISETLGNNGVGFQTQPNNEVSAKHELEEQVKKLSHDTYSLQLMAALLENECQILQQRVEILKELHHQKQGTLQEKPIQINYKQDKKNQKPSEAKKVEMYKQNKQAMKGTFWKKDRSCRSLDVCLNKKACNTQFNIHVARKALRGKMRSASSLR
# B8: NFAM1, Q8NET5 (protein)
# chain: MENQPVRWRALPGLPRPPGLPAAPWLLLGVLLLPGTLRLAGGQSVTHTGLPIMASLANTAISFSCRITYPYTPQFKVFTVSYFHEDLQGQRSPKKPTNCHPGLGTENQSHTLDCQVTLVLPGASATGTYYCSVHWPHSTVRGSGTFILVRDAGYREPPQSPQKLLLFGFTGLLSVLSVVGTALLLWNKKRMRGPGKDPTRKCPDPRSASSPKQHPSESVYTALQRRETEVYACIENEDGSSPTAKQSPLSQERPHRFEDDGELNLVYENL
# B9: BLZF1, Q9H2G9 (protein)
# chain: MTTKNLETKVTVTSSPIRGAGDGMETEEPPKSVEVTSGVQSRKHHSLQSPWKKAVPSESPGVLQLGKMLTEKAMEVKAVRILVPKAAITHDIPNKNTKVKSLGHHKGEFLGQSEGVIEPNKELSEVKNVLEKLKNSERRLLQDKEGLSNQLRVQTEVNRELKKLLVASVGDDLQYHFERLAREKNQLILENEALGRNTAQLSEQLERMSIQCDVWRSKFLASRVMADELTNSRAALQRQNRDAHGAIQDLLSEREQFRQEMIATQKLLEELLVSLQWGREQTYSPSVQPHSTAELALTNHKLAKAVNSHLLGNVGINNQKKIPSTVEFCSTPAEKMAETVLRILDPVTCKESSPDNPFFESSPTTLLATKKNIGRFHPYTRYENITFNCCNHCRGELIAL
# Biological target: nucleoprotein N of Crimean-Congo hemorrhagic fever virus
# Assay: AlphaScreen luminescence signal relative to Venus negative control (fold); higher = stronger binding to CCHFV N
# Procedure: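 AlphaScreen binding of cell-free made, FLAG-GST-tagged human transcription factors and regulators (crude translation products) to biotinylated N protein; signal as fold of the FLAG-GST-Venus control. One pass.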
row,Binder,AlphaScreen luminescence signal
1,B1,1.63
2,B2,1.77
3,B3,1.35
4,B4,3.02
5,B5,2.37
6,B6,2.47
7,B7,5.02
8,B8,2
9,B9,2.28
